{
  "source": "PubChem BioAssay AID504832",
  "about": "(National Center for Advancing Translational Sciences (NCATS), 2011)",
  "note": "Screen size: about 310,000 compounds; about 18,000 (5.8%) were called active. The inconclusive results got no clear call from the source; some entries with a clear call stand among them for comparison. Calls follow the shape of the dose curve; as a rule, active = well fitted inhibition curve with a large enough effect; inconclusive = small, poorly fitted or top-dose-only effect, or another doubt; inactive = no such curve, though single readings can be large or run the other way. No potency is given beside an inconclusive call; the fits are too rough. Residues, ends and D or L forms follow the SMILES beside them. *: point of attachment. Boc = CC(C)(C)OC(=O)*; Bn = c1ccc(C*)cc1",
  "data": [
    {"assay": "Primary qHTS for delayed death inhibitors of the malarial parasite plastid, 48 hour incubation; also: potency is read from the fitted curve at half-maximal effect; tags tell the direction and shape of the fitted curve; as to activity change, negative = inhibition: % is scaled to controls: 0 for no effect and ±100 for the full control effect", "settings": "P. falciparum luciferase growth in erythrocytes; series mostly up to 28.7 µM; activity change, negative = inhibition: at the top concentration", "summary_of_the_method": "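Parasite viability was followed by luminescence of a genomically integrated firefly luciferase. Cultures held 0.1% parasitemia at 2% hematocrit (final), incubated under 5% CO2 at 37 C.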", "values": [
      {"smiles": "COC(=O)c1ccc(COc2ccc(/C=N/Nc3cccc(C(=O)O)c3)cc2)cc1", "activity change, negative = inhibition": "inactive: 413%"},
      {"smiles": "COc1ccc(/C(=N/Nc2ncnc3ccccc23)C(=O)O)cc1", "Potency": "inconclusive [inhibitor, partial curve, poor fit]"},
      {"smiles": "CCCCn1c(N)c(N(Cc2ccccc2OC)C(=O)C(C)C)c(=O)[nH]c1=O", "activity change, negative = inhibition": "inactive: 8.61%"},
      {"smiles": "O=C(NCC(c1cccnc1)N1CCN(c2ccccc2)CC1)OCc1ccccc1", "note": "(centres undefined)", "Potency": "active: 7.38 µM"},
      {"smiles": "Cc1cc(C)c(S(=O)(=O)N2CCCCC2)c(C)c1-n1ncnn1", "Potency": "inconclusive [inhibitor, partial curve]"},
      {"smiles": "CCCCn1c(N)c(N(CCOC)C(=O)c2cc(-c3ccc(OC)cc3)nc3ccccc23)c(=O)[nH]c1=O", "Potency": "active: 9.28 µM"},
      {"smiles": "Cc1ccccc1N1C(=O)C(Oc2ccc(Cl)cc2)C1CNCCCOC(C)C", "note": "(centres undefined)", "Potency": "inconclusive [inhibitor, single point]"},
      {"smiles": "O=C(CCC1CCCC1)NCCS(=O)(=O)N1CCN(c2ccccc2F)CC1", "Potency": "inconclusive [inhibitor, partial curve, poor fit]"},
      {"smiles": "Cc1ccc(C(=O)OCC(=O)NC2CC2)cc1S(=O)(=O)N1CCOCC1", "Potency": "inconclusive [inhibitor, single point]"},
      {"smiles": "Cc1ccc2c(ccc(=S)n2C)c1", "activity change, negative = inhibition": "inactive: 42.4%"},
      {"smiles": "CC(C)CN1C(=O)c2ccc(NC(=O)Cc3ccccc3)cc2C1=O", "activity change, negative = inhibition": "inactive: -18.7%"},
      {"smiles": "Cc1ccc(C(=O)N/C(=C\\c2cn(S(=O)(=O)N(C)C)c3ccccc23)C(=O)NCCCN2CCOCC2)cc1", "Potency": "inconclusive [inhibitor, single point]"},
      {"smiles": "Cc1cc(N2CCN(c3cccc(C(F)(F)F)c3)CC2)n2ncnc2n1", "Potency": "inconclusive [inhibitor, single point]"},
      {"smiles": "CC(C)CCCN1C(Nc2ccccc2)=NC[C@@H]1CC(C)C", "Potency": "inconclusive [inhibitor, single point]"},
      {"smiles": "COc1ccc(NC(=O)C2CCN(c3cc(C)nc(-c4ccccc4)n3)CC2)cc1", "Potency": "inconclusive [inhibitor, single point]"},
      {"smiles": "c1ccc(-c2nc(N3CCOCC3)c3ccccc3n2)nc1", "Potency": "active: 7.38 µM"},
      {"smiles": "CCC(C)C(NC(=O)c1ccccc1NC(=O)c1ccco1)C(=O)NC1CCCCC1", "note": "(centres undefined)", "Potency": "active: 9.28 µM"},
      {"smiles": "CCN(CC)C(=O)COc1ccc(-c2nnc(N3CCCCC3)c3ccccc23)cc1", "Potency": "inconclusive [inhibitor, partial curve]"},
      {"smiles": "CCOC(=O)C1=C(C)NC(=O)/C1=C\\N(C)C", "activity change, negative = inhibition": "inactive: 4.99%"},
      {"smiles": "CN(C)C(CNC(=O)c1cccc(C(F)(F)F)c1)c1ccco1", "note": "(centres undefined)", "activity change, negative = inhibition": "inactive: -1.45%"},
      {"smiles": "CCN(CC)S(=O)(=O)c1cccc(NC(=O)c2cncc(Br)c2)c1", "Potency": "inconclusive [inhibitor, single point]"},
      {"smiles": "CCOc1ccc(-c2[nH]ncc2-c2ccccc2)c(O)c1", "Potency": "inconclusive [inhibitor, partial curve]"},
      {"smiles": "O=C(CN1CCN(c2ccc(F)cc2)CC1)c1ccc(O)cc1O", "activity change, negative = inhibition": "inactive: 6.94%"},
      {"smiles": "Cc1ccc(O)c(N=Nc2ccc(S(=O)(=O)N3CCCC3)cc2)c1", "Potency": "inconclusive [inhibitor, single point]"},
      {"smiles": "NNC(=O)c1cc(-c2cccs2)nc2ccccc12", "Potency": "inconclusive [inhibitor, single point]"},
      {"smiles": "CC(C)Sc1nc2c(c(=O)[nH]c(=O)n2C)n1Cc1ccc(Cl)cc1", "Potency": "inconclusive [inhibitor, single point]"},
      {"smiles": "COc1cccc(-n2nc(-c3ccnn3-c3cccc(Cl)c3)c(=O)n(C)c2=O)c1", "Potency": "inconclusive [inhibitor, partial curve]"},
      {"smiles": "Cc1cccn2c(CN3CCCN(C=O)CC3)c(C(=O)N(C)CCc3ccccc3)nc12", "activity change, negative = inhibition": "inactive: -14.3%"},
      {"smiles": "CCC(CC)C(=O)N1CC(=O)Nc2ccc(Br)cc2C1c1ccccc1", "note": "(centres undefined)", "Potency": "inconclusive [inhibitor, single point]"},
      {"smiles": "Cc1cc(C)c(OCCCn2ccnc2)c(C)c1", "Potency": "inconclusive [inhibitor, partial curve, poor fit]"},
      {"smiles": "COc1ccc(OCC(=O)Nc2c3c(nn2C(C)(C)C)CSC3)cc1", "activity change, negative = inhibition": "inactive: 50.7%"},
      {"smiles": "O=C(Nc1cc(F)ccc1F)C1CCCN(c2ncnc3c2nc2n3CCCCC2)C1", "note": "(centres undefined)", "Potency": "inconclusive [inhibitor, partial curve, poor fit]"},
      {"smiles": "Fc1ccc(CNC(=S)Nc2cccc(Cl)c2)cc1", "Potency": "inconclusive [inhibitor, single point]"},
      {"smiles": "CC(=O)c1ccc(N2CCN(C(=O)c3nn(C)c4c3CS(=O)(=O)c3ccccc3-4)CC2)cc1", "Potency": "inconclusive [inhibitor, partial curve, poor fit]"},
      {"smiles": "CNc1cc([N+](=O)[O-])ccc1N/C=C/C(=O)c1cccs1", "Potency": "inconclusive [inhibitor, partial curve, poor fit]"},
      {"smiles": "O=C(CN(Cc1ccccc1F)S(=O)(=O)c1ccc(Cl)cc1)NCCC1=CCCCC1", "Potency": "inconclusive [inhibitor, single point]"},
      {"smiles": "CN(C)S(=O)(=O)c1cccc(NC(=O)c2ccc3c(c2)S(=O)(=O)N=C2CCCCCN23)c1", "Potency": "inconclusive [inhibitor, partial curve]"},
      {"smiles": "CCNC(=O)C12CCC(C)(c3nc4cc(C)c(C)cc4nc31)C2(C)C", "note": "(centres undefined)", "Potency": "inconclusive [inhibitor, partial curve]"},
      {"smiles": "CCOCCCNC(=S)NCCCNc1nc2c(C)cc(C)cc2cc1C#N", "Potency": "inconclusive [inhibitor, single point]"},
      {"smiles": "Cc1csc(NC(=O)c2ccccc2)n1", "activity change, negative = inhibition": "inactive: 216%"},
      {"smiles": "CN(C)/C=N/c1nc2nccc(-c3ccc(Cl)cc3)n2n1", "Potency": "inconclusive [inhibitor, partial curve, poor fit]"},
      {"smiles": "O=C(c1ccc2c(=O)n(CCc3ccccc3)c(=O)[nH]c2c1)N1CCN(c2ccccc2)CC1", "Potency": "inconclusive [inhibitor, partial curve]"},
      {"smiles": "CCCCn1c(N)c(N(CC)C(=O)c2ccc(-c3ccc(Cl)cc3)o2)c(=O)[nH]c1=O", "Potency": "inconclusive [inhibitor, single point]"},
      {"smiles": "C/C(N)=C(/C#N)C(=O)COc1ccc(Cl)cc1Cl", "activity change, negative = inhibition": "inactive: 17.7%"},
      {"smiles": "COc1ccc(-c2csc(NC(=O)C3CC(=O)N(Cc4ccco4)C3)n2)cc1", "note": "(centres undefined)", "Potency": "inconclusive [inhibitor, partial curve, poor fit]"},
      {"smiles": "O=C(Nc1cccc(S(=O)(=O)NC2=NCCC2)c1)c1ccc(OC(F)F)cc1", "activity change, negative = inhibition": "inactive: 26.1%"},
      {"smiles": "O=C(/C=C/c1ccccc1)N1CCC(N2CCC(C(=O)N3CCOCC3)CC2)CC1", "activity change, negative = inhibition": "inactive: 8.83%"},
      {"smiles": "COc1ccccc1NC(=O)C1CCCN(S(=O)(=O)c2ccccc2)C1", "note": "(centres undefined)", "activity change, negative = inhibition": "inactive: 22.5%"},
      {"smiles": "Cc1ccccc1NC(=S)N(Cc1ccccc1)Cc1cccnc1", "Potency": "inconclusive [inhibitor, single point]"},
      {"smiles": "CCOc1ccc2ncc(S(=O)(=O)c3ccc(C)cc3)c(N3CCC4(CC3)OCCO4)c2c1", "Potency": "active: 11.7 µM"},
      {"smiles": "Cc1cc(C)cc(N(CC(=O)NC2CCC(C)CC2)S(=O)(=O)c2c(C)noc2C)c1", "note": "(centres undefined)", "Potency": "inconclusive [inhibitor, partial curve]"},
      {"smiles": "CC(C)CC(NC(=O)C(NC(=O)C(Cc1ccc(OCc2ccccc2)cc1)NC(=O)OC(C)(C)C)C(C)C)C(N)=O", "note": "(stereo not drawn) (Boc-Tyr(Bn)-Val-Leu-NH2; configuration not given here)", "Potency": "inconclusive [inhibitor, single point]"},
      {"smiles": "Brc1cccc(-c2nnc3n2CCC3)c1", "Potency": "inconclusive [inhibitor, partial curve, poor fit]"},
      {"smiles": "S=C(NCc1ccccn1)Nc1ccccc1Cl", "activity change, negative = inhibition": "inactive: 47.6%"},
      {"smiles": "CCCN1CC(O)=C(C#N)C1=O", "activity change, negative = inhibition": "inactive: 1.89%"},
      {"smiles": "CCCn1c(N)c(C(=O)COc2ccc(Br)cc2F)c(=O)n(C)c1=O", "Potency": "inconclusive [inhibitor, single point]"},
      {"smiles": "COc1cccc(N2CCN(C(=O)C3CCN(S(=O)(=O)c4cccs4)CC3)CC2)c1", "activity change, negative = inhibition": "inactive: -40.3%"},
      {"smiles": "COc1ccc2cc1Oc1cc3c(cc1OC)CC[N+](C)(C)C3Cc1ccc(cc1)Oc1c(OC)c(OC)cc3c1C(C2)[N+](C)(C)CC3", "note": "(centres undefined)", "activity change, negative = inhibition": "inactive: 3.9%"},
      {"smiles": "Cc1ccc(NC(=O)C2CCN(S(=O)(=O)c3ccccc3)CC2)cc1", "activity change, negative = inhibition": "inactive: -16.3%"},
      {"smiles": "CCCCC(=O)Nc1nn(C)c2nc3c(C)cccc3cc12", "Potency": "inconclusive [inhibitor, full curve, poor fit]"},
      {"smiles": "CCOC(=O)[C@H]1[C@H]2COc3ccc(Cl)cc3[C@@H]2N2C(=O)CN(Cc3ccc(OC)cc3)C(=O)[C@@]12C", "Potency": "active: 7.38 µM"},
      {"smiles": "CC(CC(=O)N1CCN(S(=O)(=O)c2ccc([N+](=O)[O-])cc2)CC1)c1ccccc1", "note": "(centres undefined)", "activity change, negative = inhibition": "inactive: 6.11%"},
      {"smiles": "CCc1ccc(C(=O)NNc2ccc(Cl)cc2)cc1", "activity change, negative = inhibition": "inactive: -10.1%"},
      {"smiles": "COC(=O)[C@@H](N)Cc1ccc(O)c(O)c1", "Potency": "inconclusive [inhibitor, single point]"},
      {"smiles": "COc1ccccc1OCc1ccc(C(=O)N/N=C/c2ccco2)cc1", "Potency": "inconclusive [inhibitor, single point]"},
      {"smiles": "COC(=O)CNC(=O)COC(=O)c1ccc(OC)c([N+](=O)[O-])c1", "activity change, negative = inhibition": "inactive: 6.08%"},
      {"smiles": "COCCNC(=O)CC(NS(=O)(=O)c1ccc(C)cc1)c1ccco1", "note": "(centres undefined)", "Potency": "inconclusive [inhibitor, full curve, poor fit]"},
      {"smiles": "COC(=O)c1cc(C)nc2c1C(=O)C(=O)C=C2N1CCOCC1", "Potency": "active: 13.1 µM"},
      {"smiles": "O=C(NCC(=O)N(c1ccc(F)cc1)C(C(=O)NC1CCCCC1)c1ccncc1)c1ccco1", "note": "(centres undefined)", "Potency": "inconclusive [inhibitor, partial curve, poor fit]"}
    ]}
  ]
}
